Where a name gives a salt, the structure may show the parent alone. The list shows a part of the results. Repeats are few or missing, and single values can be far off.

72 compounds from the supplement of paper PMC9938546 can be followed below.
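Note: viability estimated indirectly by image-based GFP quantification with live-cell imaging of the constitutively GFP-expressing human colorectal cancer line, no immune cells added.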

The test deals with HCT116-GFP. As to the kind of experiment: HCT116-GFP viability (GFP intensity) relative to untreated control, monoculture; higher = less cancer cell killing. The note with it: culture: HCT116-GFP monoculture; 10 µM; 72 h.
Turning to `CN1CCCN=C1/C=C/c1cccc(O)c1` [Oxantel pamoate], the HCT116-GFP viability was 98.5%.
Regarding `C[C@@H](O[C@H]1OCCN(Cc2n[nH]c(=O)[nH]2)[C@H]1c1ccc(F)cc1)c1cc(C(F)(F)F)cc(C(F)(F)F)c1` [Aprepitant], the HCT116-GFP viability was 63.6%.
`CC=CC1=C(C(=O)O)N2C(=O)[C@@H](NC(=O)[C@H](N)c3ccc(O)cc3)[C@H]2SC1` [Cefprozil]: the HCT116-GFP viability turned out to be 106%.
Consider `Cc1cc2c(s1)Nc1ccccc1N=C2N1CCN(C)CC1` [Olanzapine], for which the HCT116-GFP viability came out at 97.1%.
Consider `CC(C)OC(=O)C(C)(C)Oc1ccc(C(=O)c2ccc(Cl)cc2)cc1` [Fenofibrate], for which the HCT116-GFP viability amounted to 85%.
For the compound `Cc1c(O)c(=O)n(-c2ccccc2)n1C` [Antipyrine, 4-hydroxy], the HCT116-GFP viability came to 103%.
For the compound `Nc1ncnc2c1ncn2C1OC(COP(=O)(O)O)C(O)C1O` (configuration not stated) [Adenosine 5'-monophosphate monohydrate], the HCT116-GFP viability worked out at 98.4%.
Turning to `CCOc1ccc2nc(S(N)(=O)=O)sc2c1` [Ethoxzolamide], the HCT116-GFP viability is 90.3%.
Take `C[C@@H]1C[C@H]2[C@@H]3CCC4=CC(=O)C=C[C@]4(C)[C@@]3(Cl)[C@@H](O)C[C@]2(C)[C@@]1(OC(=O)c1ccco1)C(=O)CCl` [Mometasone furoate]: the HCT116-GFP viability turned out to be 63.8%.
Consider `CN1CCCN(C(c2ccccc2)c2ccc(Cl)cc2)CC1` (configuration not stated) [Homochlorcyclizine dihydrochloride], for which the HCT116-GFP viability was determined as 93.4%.
`CCCCc1ccc2[nH]c(NC(=O)OC)nc2c1` [Parbendazole]: the HCT116-GFP viability was 9.91%.
The value for `C/C(=C\C(=O)OCCCCCCCCC(=O)O)C[C@@H]1OC[C@H](C[C@@H]2O[C@H]2[C@@H](C)[C@H](C)O)[C@@H](O)[C@H]1O` [Mupirocin] was 110%; that for `CN/C(=N\CCSCc1nc[nH]c1C)NC#N` [Cimetidine] was 102%; that for `CCc1cccc(CC)c1NC(=O)CN(CC(=O)O)CC(=O)O` [Etifenin] was 105%.
As to `O=C(O)c1cc(/N=N/c2ccc(S(=O)(=O)Nc3ccccn3)cc2)ccc1O` [Sulfasalazine], the HCT116-GFP viability was found to be 96.7%.
As for `CN1CCN(C(c2ccccc2)c2ccccc2)CC1` [Cyclizine hydrochloride], the HCT116-GFP viability came out at 102%.
Turning to `OCCN(CCO)c1nc(N2CCCCC2)c2nc(N(CCO)CCO)nc(N3CCCCC3)c2n1` [Dipyridamole], the HCT116-GFP viability was 79.7%.
Consider `O=C(O)c1ccccc1C(=O)Nc1ccc(S(=O)(=O)Nc2nccs2)cc1` [Phthalylsulfathiazole], for which the HCT116-GFP viability was determined as 94.8%.
Consider `CN(c1nccc(=O)[nH]1)C1CCN(c2nc3ccccc3n2Cc2ccc(F)cc2)CC1` [Mizolastine], for which the HCT116-GFP viability was 96.3%.
As for `NC[C@@H]1O[C@@H](O[C@H]2[C@H](O)[C@@H](O[C@H]3O[C@H](CO)[C@@H](O)[C@H](N)[C@H]3O)[C@H](N)C[C@@H]2N)[C@@H](O)[C@H](O)[C@H]1O` [Kanamycin A sulfate], the HCT116-GFP viability turned out to be 94.7%.
Turning to `CC1CC(OC(=O)c2ccccc2O)CC(C)(C)C1` (configuration not stated) [Homosalate], the HCT116-GFP viability was found to be 81%.
As for `COC(=O)C1=C(C#N)NC(C)=C(C(=O)OC(C)C)C1c1cccc([N+](=O)[O-])c1` (configuration not stated) [Nilvadipine], the HCT116-GFP viability is 121%.
`C#C[C@]1(O)CC[C@H]2[C@@H]3CCC4=CCCC[C@@H]4[C@H]3CC[C@@]21C` [Lynestrenol]: the HCT116-GFP viability amounted to 97.6%.
Turning to `C[C@H](CCC(=O)O)[C@H]1CC[C@H]2[C@@H]3[C@@H](O)C[C@@H]4C[C@H](O)CC[C@]4(C)[C@H]3CC[C@]12C` [Urosiol], the HCT116-GFP viability was determined as 110%.
With `O=C(CCCN1CCN(c2ccccn2)CC1)c1ccc(F)cc1` [Azaperone], the HCT116-GFP viability turned out to be 22%.
In the case of `CN1CCC(=C2c3ccccc3Sc3ccccc32)CC1` [Pimethixene maleate], the HCT116-GFP viability was 83.8%.
For `Nc1c2ccccc2nc2ccccc12` [Aminacrine], the HCT116-GFP viability was 5.65%.
On to `N[C@@H](Cc1cc(I)c(Oc2ccc(O)c(I)c2)c(I)c1)C(=O)O` [Liothyronine], for which the HCT116-GFP viability worked out at 93.8%.
For `CS(=O)(=O)OCCCCOS(C)(=O)=O` [Busulfan] the value was 106%.
In the case of `Cc1c(NC(=O)c2cccnc2)c(=O)n(-c2ccccc2)n1C` [Nifenazone], the HCT116-GFP viability turned out to be 101%.
With `CC(C)NC[C@@H](O)COc1ccc(CC(N)=O)cc1` [(R)-(+)-Atenolol], the HCT116-GFP viability stood at 103%.
The value for `NS(=O)(=O)c1cc2c(cc1C(F)(F)F)NCNS2(=O)=O` [Hydroflumethiazide] was 93.6%.
With `CC[C@@H]1C(=O)OC[C@@H]1Cc1cncn1C` [Pilocarpine nitrate], the HCT116-GFP viability is 101%.
As to `CO[C@@H]1[C@@H](O[C@@H]2O[C@H](C)[C@@H](O[C@H]3C[C@@](C)(O)[C@@H](OC(=O)CC(C)C)[C@H](C)O3)[C@H](N(C)C)[C@H]2O)[C@@H](CC=O)C[C@@H](C)[C@@H](O)/C=C/C=C/C[C@@H](C)OC(=O)C[C@H]1OC(C)=O` [Josamycin], the HCT116-GFP viability worked out at 80.5%.
Take `CC(=O)CC(c1ccccc1)c1c(O)c2ccccc2oc1=O` (configuration not stated) [Warfarin]: the HCT116-GFP viability was 104%.
For `CCN(CC)CC(=O)Nc1c(C)cccc1C` [Lidocaine hydrochloride] the value was 109%; for `c1ccc2c(CC3=NCCN3)cccc2c1` [Naphazoline hydrochloride], 86.6%; for `CC(=O)OCC(=O)[C@@]12OC(C)(C)O[C@@H]1C[C@H]1[C@@H]3C[C@H](F)C4=CC(=O)C=C[C@]4(C)[C@@]3(F)[C@@H](O)C[C@@]12C` [Fluocinonide], 99.5%.
For `C=CC1=C(C(=O)O)N2C(=O)[C@@H](NC(=O)/C(=N\O)c3csc(N)n3)[C@H]2SC1` [Cefdinir], the HCT116-GFP viability came out at 91%.
In the case of `Cc1cn([C@H]2C=C[C@@H](CO)O2)c(=O)[nH]c1=O` [Stavudine], the HCT116-GFP viability was determined as 104%.
As to `CC(=O)NS(=O)(=O)c1ccc(N)cc1` [Sulfacetamide sodic hydrate], the HCT116-GFP viability turned out to be 95.4%.
Regarding `COc1cccc2c1C(=O)c1c(O)c3c(c(O)c1C2=O)C[C@@](O)(C(C)=O)C[C@@H]3O[C@H]1C[C@H](N)[C@H](O)[C@H](C)O1` [Daunorubicin hydrochloride], the HCT116-GFP viability came to 6.12%.
Consider `CCCOc1cc(N)ccc1C(=O)OCCN(CC)CC` [Propoxycaine hydrochloride], for which the HCT116-GFP viability was 90.7%.
The value for `OC(Cn1cncn1)(Cn1cncn1)c1ccc(F)cc1F` [Fluconazole] was 95.6%; that for `NCCc1c[nH]cn1` [Histamine dihydrochloride] was 101%.
The value for `CC[N+](C)(C)c1cccc(O)c1` [Edrophonium chloride] was 102%; that for `Cc1cn[nH]c1` [Fomepizole] was 92.5%; that for `CC[N+](C)(CC)CCOC(=O)C1c2ccccc2Oc2ccccc21` [Methantheline bromide] was 86.8%.
Regarding `CCCCN(CCCC)CCCOC(=O)c1ccc(N)cc1` [Butacaine], the HCT116-GFP viability was 91.5%.
In the case of `Cc1ccc(C(=O)c2ccc(CC(=O)O)n2C)cc1` [Tolmetin sodium salt dihydrate], the HCT116-GFP viability was determined as 85.9%.
With `COC(=O)Nc1nc2cc(C(=O)c3cccs3)ccc2[nH]1` [Nocodazole], the HCT116-GFP viability is 10.4%.
Regarding `CC(=O)OCC(=O)[C@@]1(O)CC[C@H]2[C@@H]3CCC4=CC(=O)CC[C@]4(C)[C@@]3(F)[C@@H](O)C[C@@]21C` [Fludrocortisone acetate], the HCT116-GFP viability was 94.2%.
Regarding `C=CC(N)CCC(=O)O` (configuration not stated) [Vigabatrin hydrochloride], the HCT116-GFP viability came to 92.2%.
Turning to `NS(=O)(=O)c1cc(C2(O)NC(=O)c3ccccc32)ccc1Cl` (configuration not stated) [Chlorthalidone], the HCT116-GFP viability turned out to be 90.9%.
Turning to `CCN[C@H]1CN(CCCOC)S(=O)(=O)c2sc(S(N)(=O)=O)cc21` [Brinzolamide], the HCT116-GFP viability worked out at 84.9%.
`Cc1ncc(C[n+]2csc(CCO)c2C)c(N)n1` [Thiamine hydrochloride]: the HCT116-GFP viability came to 109%.
As for `CC(C)c1c(C(=O)Nc2ccccc2)c(-c2ccccc2)c(-c2ccc(F)cc2)n1CC[C@@H](O)C[C@@H](O)CC(=O)O` [Atorvastatin], the HCT116-GFP viability amounted to 66.6%.
As for `CC(=O)OCC(=O)[C@@]1(O)CC[C@H]2[C@@H]3CCC4=CC(=O)CC[C@]4(C)[C@H]3[C@@H](O)C[C@@]21C` [Cortisol acetate], the HCT116-GFP viability stood at 104%.
Consider `CCCc1cc(C(N)=S)ccn1` [Prothionamide], for which the HCT116-GFP viability stood at 97.3%.
In the case of `CC(=O)S[C@@H]1CC2=CC(=O)CC[C@]2(C)[C@H]2CC[C@@]3(C)[C@@H](CC[C@@]34CCC(=O)O4)[C@H]12` [Spironolactone], the HCT116-GFP viability worked out at 84.8%.
For `CC(Cc1cccc(C(F)(F)F)c1)NCCOC(=O)c1ccccc1` (configuration not stated) [Benfluorex] the value was 104%; for `NNCCc1ccccc1` [Phenelzine sulfate], 103%.
For the compound `C[C@H]1O[C@H](O[C@H]2[C@H](O)[C@@H](O)[C@@H](O[C@H]3[C@H](O)[C@@H](O)C(O)O[C@@H]3CO)O[C@@H]2CO)[C@H](O)[C@@H](O)[C@@H]1N[C@H]1C=C(CO)[C@@H](O)[C@H](O)[C@H]1O` (some centres not stated) [Acarbose], the HCT116-GFP viability was 109%.
For `CN1CCC(=C2c3ccccc3C=Cc3ccccc32)CC1` [Cyproheptadine hydrochloride] the value was 76.6%; for `N=C(N)NC(=N)NCCc1ccccc1` [Phenformin hydrochloride], 83.9%.
Regarding `CC(C)(C)NC[C@@H](O)COc1cccc2c1CCCC2=O` [(+) -Levobunolol hydrochloride], the HCT116-GFP viability turned out to be 92.4%.
Regarding `CO[C@H]1/C=C/O[C@@]2(C)Oc3c(C)c(O)c4c(O)c(c(/C=N/N5CCN(C6CCCC6)CC5)c(O)c4c3C2=O)NC(=O)/C(C)=C\C=C\[C@H](C)[C@H](O)[C@@H](C)[C@@H](O)[C@@H](C)[C@H](OC(C)=O)[C@@H]1C` [Rifapentine], the HCT116-GFP viability came to 78.2%.
For the compound `O=C(O)Cc1ccc(-c2ccccc2)cc1` [Felbinac], the HCT116-GFP viability was 96%.
With `C[C@@H]1C[C@H]2[C@@H]3C[C@H](F)C4=CC(=O)C=C[C@]4(C)[C@@]3(F)[C@@H](O)C[C@]2(C)[C@@]1(O)C(=O)CO` [Flumethasone], the HCT116-GFP viability was 100%.
On to `O=C(O)c1cn(-c2ccc(F)cc2)c2cc(N3CCNCC3)c(F)cc2c1=O` [Sarafloxacin], for which the HCT116-GFP viability was found to be 93.1%.
Take `C[N+]1(C)CCC(OC(=O)C(O)(c2ccccc2)C2CCCC2)C1` (configuration not stated) [Glycopyrrolate]: the HCT116-GFP viability was 88.2%.
For `N#Cc1ccc(C(c2ccc(C#N)cc2)n2cncn2)cc1` [Letrozole] the value was 105%.
